Compound in the test: FC(F)c1nc2ccccc2n1-c1nc(N2CCOCC2)nc(N2CCOCC2)n1 [ZSTK474]
Put plainly: Viability of human cancer cell lines after 72 h of drug (GDSC screen). The protocol: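 Human cancer cell lines in 384-well plates, medium with 10% serum, drug for 72 h over a 256-fold dose range (nine 2-fold or five 4-fold steps up to the top dose). Adherent lines were fixed and stained with the nucleic acid dye Syto60, suspension lines read with resazurin; signal relative to control wells, capped at 0 and 100%. One two-parameter sigmoid per drug and line, fitted in a mixed model over all curves with the slope shared within a line.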

By IC50 is meant the dose at which the fit gives 50% viability; a fit beyond the top or the lowest dose is shown as a bound at that dose. For AUC the same curve is integrated over the 256-fold range of doses and scaled to a fraction; it is 1 without any effect and falls as sensitivity rises.

In the case of “KINGS-1 (glioma, adherent, top dose 5.12 µM)”, the AUC was found to be 0.933 and the half-maximal inhibitory concentration (IC50) (as a rule, the midpoint of a concentration-inhibition curve) was > 5.12 µM.

“KLE (endometrium, adherent, top dose 5.12 µM)”: the AUC was determined as 0.721 and the IC50 was found to be 1.95 µM.

Turning to “KM12 (large intestine, adherent, top dose 5.12 µM)”, the AUC stood at 0.872 and the IC50 is > 5.12 µM.

“KM-H2 (Hodgkin lymphoma, suspension, top dose 5.12 µM)”: the AUC is 0.803 and the IC50 was 2.1 µM.

“KMH-2 (thyroid, adherent, top dose 5.12 µM)”: the AUC was determined as 0.817 and the half-inhibitory concentration (IC50) is 2.47 µM.

As to “KMOE-2 (acute myeloid leukaemia, suspension, top dose 5.12 µM)”, the AUC worked out at 0.695 and the IC50 is 1.05 µM.

For “KMRC-1 (kidney, adherent, top dose 5.12 µM)”, the AUC is 0.966 and the 50% inhibitory concentration (IC50) was > 5.12 µM.

As to “KMRC-20 (kidney, adherent, top dose 5.12 µM)”, the AUC came out at 0.974 and the half-maximal inhibitory concentration (IC50) was > 5.12 µM.

With “KMS-11 (myeloma, suspension, top dose 5.12 µM)”, the AUC was 0.848 and the IC50 was 3 µM.

Take “KMS-12-BM (myeloma, suspension, top dose 5.12 µM)”: the AUC came to 0.559 and the IC50 was 0.451 µM.

Take “KNS-42 (glioma, adherent, top dose 5.12 µM)”: the AUC is 0.879 and the IC50 is > 5.12 µM.

As for “KNS-81-FD (glioma, adherent, top dose 5.12 µM)”, the AUC came to 0.863 and the IC50 was > 5.12 µM.

Consider “KON (head and neck, adherent, top dose 5.12 µM)”, for which the AUC worked out at 0.968 and the IC50 was > 5.12 µM.

Consider “KOPN-8 (B-cell leukaemia, suspension, top dose 5.12 µM)”, for which the AUC stood at 0.75 and the concentration for half-maximal inhibition (IC50) was 1.47 µM.

Consider “KP-1N (pancreas, adherent, top dose 10.24 µM)”, for which the AUC was 0.259 and the half-maximal inhibitory concentration (IC50) was 0.126 µM.

For the cell line “KP-2 (pancreas, adherent, top dose 5.12 µM)”, the AUC came to 0.79 and the concentration for half-maximal inhibition (IC50) is 2.49 µM.

As for “KP-3 (pancreas, adherent, top dose 5.12 µM)”, the AUC amounted to 0.761 and the half-inhibitory concentration (IC50) is 2.16 µM.

In the case of “KP-4 (pancreas, adherent, top dose 5.12 µM)”, the AUC was found to be 0.643 and the 50% inhibitory concentration (IC50) amounted to 0.78 µM.

Turning to “KP-N-YN (neuroblastoma, adherent, top dose 5.12 µM)”, the AUC was 0.963 and the half-maximal inhibitory concentration (IC50) was > 5.12 µM.

Turning to “KP-N-YS (neuroblastoma, adherent, top dose 5.12 µM)”, the AUC stood at 0.897 and the concentration for half-maximal inhibition (IC50) is > 5.12 µM.

Turning to “KS-1 (glioma, adherent, top dose 5.12 µM)”, the AUC was found to be 0.595 and the IC50 was found to be 0.624 µM.

On to “KU812 (chronic myeloid leukaemia, suspension, top dose 5.12 µM)”, for which the AUC is 0.1 and the IC50 is < 0.02 µM.

As to “KU-19-19 (bladder, adherent, top dose 5.12 µM)”, the AUC is 0.974 and the IC50 is > 5.12 µM.

“KURAMOCHI (ovary, adherent, top dose 5.12 µM)”: the AUC is 0.869 and the IC50 was > 5.12 µM.

Regarding “KY821 (leukaemia, suspension, top dose 5.12 µM)”, the AUC came to 0.951 and the concentration for half-maximal inhibition (IC50) is > 5.12 µM.

As for “KYAE-1 (oesophagus, suspension, top dose 5.12 µM)”, the AUC is 0.312 and the IC50 came to 0.0892 µM.

On to “KYM-1 (rhabdomyosarcoma, adherent, top dose 5.12 µM)”, for which the AUC stood at 0.982 and the IC50 was > 5.12 µM.

In the case of “KYSE-50 (oesophagus, adherent, top dose 5.12 µM)”, the AUC amounted to 0.44 and the IC50 is 0.223 µM.

“KYSE-70 (oesophagus, adherent, top dose 5.12 µM)”: the AUC was 0.908 and the IC50 was > 5.12 µM.

Regarding “KYSE-140 (oesophagus, adherent, top dose 5.12 µM)”, the AUC turned out to be 0.707 and the concentration for half-maximal inhibition (IC50) turned out to be 1.34 µM.

For “KYSE-150 (oesophagus, adherent, top dose 5.12 µM)”, the AUC turned out to be 0.924 and the half-inhibitory concentration (IC50) was > 5.12 µM.

As to “KYSE-180 (oesophagus, adherent, top dose 5.12 µM)”, the AUC came to 0.894 and the half-inhibitory concentration (IC50) is > 5.12 µM.

For the cell line “KYSE-220 (oesophagus, adherent, top dose 5.12 µM)”, the AUC came out at 0.657 and the IC50 turned out to be 0.898 µM.

With “KYSE-270 (oesophagus, adherent, top dose 5.12 µM)”, the AUC was determined as 0.793 and the concentration for half-maximal inhibition (IC50) amounted to 1.96 µM.

Consider “KYSE-410 (oesophagus, adherent, top dose 5.12 µM)”, for which the AUC was determined as 0.878 and the IC50 was > 5.12 µM.

“KYSE-450 (oesophagus, adherent, top dose 5.12 µM)”: the AUC came out at 0.659 and the IC50 was 0.86 µM.

Take “KYSE-510 (oesophagus, adherent, top dose 5.12 µM)”: the AUC is 0.949 and the 50% inhibitory concentration (IC50) is > 5.12 µM.

As for “KYSE-520 (oesophagus, adherent, top dose 5.12 µM)”, the AUC came out at 0.653 and the half-inhibitory concentration (IC50) was 0.987 µM.

For the cell line “L-363 (myeloma, suspension, top dose 5.12 µM)”, the AUC worked out at 0.682 and the IC50 was determined as 0.95 µM.

Take “L-428 (Hodgkin lymphoma, suspension, top dose 5.12 µM)”: the AUC is 0.963 and the IC50 is > 5.12 µM.

On to “L-540 (Hodgkin lymphoma, suspension, top dose 5.12 µM)”, for which the AUC was found to be 0.848 and the 50% inhibitory concentration (IC50) was 3.19 µM.

As to “L-1236 (Hodgkin lymphoma, suspension, top dose 5.12 µM)”, the AUC turned out to be 0.899 and the half-inhibitory concentration (IC50) was found to be 4.67 µM.

With “LAMA-84 (chronic myeloid leukaemia, suspension, top dose 5.12 µM)”, the AUC came out at 0.754 and the half-inhibitory concentration (IC50) stood at 1.75 µM.

Consider “LAN-6 (neuroblastoma, adherent, top dose 5.12 µM)”, for which the AUC came to 0.869 and the half-maximal inhibitory concentration (IC50) was > 5.12 µM.

For “LB373-MEL-D (melanoma, adherent, top dose 5.12 µM)”, the AUC is 0.955 and the IC50 is > 5.12 µM.

For “LB647-SCLC (small cell lung carcinoma, semi-adherent, top dose 5.12 µM)”, the AUC came to 0.723 and the IC50 is 1.5 µM.

In the case of “LB771-HNC (head and neck, adherent, top dose 5.12 µM)”, the AUC stood at 0.707 and the IC50 came out at 1.44 µM.

With “LB831-BLC (bladder, adherent, top dose 5.12 µM)”, the AUC was 0.878 and the concentration for half-maximal inhibition (IC50) is > 5.12 µM.

As to “LB996-RCC (kidney, adherent, top dose 5.12 µM)”, the AUC came to 0.965 and the IC50 is > 5.12 µM.

Regarding “LB1047-RCC (kidney, adherent, top dose 5.12 µM)”, the AUC stood at 0.695 and the concentration for half-maximal inhibition (IC50) came out at 1.22 µM.

Consider “LB2241-RCC (kidney, adherent, top dose 5.12 µM)”, for which the AUC was determined as 0.981 and the 50% inhibitory concentration (IC50) is > 5.12 µM.

Consider “LB2518-MEL (melanoma, adherent, top dose 5.12 µM)”, for which the AUC turned out to be 0.764 and the half-maximal inhibitory concentration (IC50) was 1.96 µM.

Consider “LC4-1 (lymphoblastic leukaemia, suspension, top dose 5.12 µM)”, for which the AUC was found to be 0.324 and the half-inhibitory concentration (IC50) is 0.0976 µM.

Take “LC-1-sq (lung squamous cell carcinoma, adherent, top dose 5.12 µM)”: the AUC was found to be 0.77 and the IC50 is 2.29 µM.

Consider “LC-2-ad (lung adenocarcinoma, adherent, top dose 5.12 µM)”, for which the AUC worked out at 0.679 and the concentration for half-maximal inhibition (IC50) was determined as 1.02 µM.

As to “LCLC-97TM1 (large cell lung carcinoma, adherent, top dose 5.12 µM)”, the AUC amounted to 0.67 and the IC50 came out at 1 µM.

Regarding “LCLC-103H (large cell lung carcinoma, adherent, top dose 5.12 µM)”, the AUC turned out to be 0.816 and the IC50 came to 2.51 µM.

“LK-2 (lung squamous cell carcinoma, adherent, top dose 5.12 µM)”: the AUC was 0.881 and the concentration for half-maximal inhibition (IC50) was found to be 4.85 µM.

Turning to “LN-18 (glioma, adherent, top dose 5.12 µM)”, the AUC amounted to 0.985 and the concentration for half-maximal inhibition (IC50) was > 5.12 µM.

For the cell line “LN-229 (glioma, adherent, top dose 5.12 µM)”, the AUC amounted to 0.921 and the IC50 was > 5.12 µM.

On to “LN-405 (glioma, adherent, top dose 5.12 µM)”, for which the AUC came to 0.675 and the IC50 came to 1.12 µM.

For the cell line “LNCaP-Clone-FGC (prostate, adherent, top dose 5.12 µM)”, the AUC came to 0.383 and the IC50 amounted to 0.145 µM.

Turning to “LNZTA3WT4 (glioma, adherent, top dose 5.12 µM)”, the AUC amounted to 0.906 and the IC50 is > 5.12 µM.

“LOU-NH91 (lung squamous cell carcinoma, adherent, top dose 5.12 µM)”: the AUC amounted to 0.95 and the IC50 is > 5.12 µM.

For the cell line “LOUCY (T-cell lymphoblastic leukaemia, suspension, top dose 5.12 µM)”, the AUC was found to be 0.422 and the IC50 came to 0.205 µM.

These data come from the supplement of paper PMC4967469.
